{"source": "the antibiotic and cytotoxicity screens of Wong et al. (2023)", "note": "Some of the results follow.", "data": [{"test_system": "HSkMC (human skeletal muscle cells)", "assay": "cytotoxicity call (relative viability < 0.9)", "conditions": "10 µM", "values": [{"compound": "C[C@@H]1CN([C@H](C)CO)C(=O)c2cc(NC(=O)Nc3ccc(C(F)(F)F)cc3)ccc2O[C@@H](C)CCCCO[C@@H]1CN(C)C(=O)C1CCCCC1", "cytotoxicity call": "inactive"}, {"compound": "C[C@H](CO)N1C[C@H](C)[C@@H](CN(C)Cc2ccc3c(c2)OCO3)OCCCC[C@H](C)Oc2ccc(NC(=O)Nc3ccc(F)cc3)cc2C1=O", "cytotoxicity call": "inactive"}, {"compound": "COc1ccc(CN(C)C[C@H]2Oc3ccc(NS(=O)(=O)c4cn(C)cn4)cc3CC(=O)N([C@H](C)CO)C[C@@H]2C)cc1", "cytotoxicity call": "inactive"}, {"compound": "COc1cccc(C(=O)Nc2ccc3c(c2)C(=O)N(C)[C@H]2CC[C@H](CC(=O)NCC4CC4)O[C@H]2CO3)c1", "cytotoxicity call": "inactive"}, {"compound": "Cc1noc(C)c1NC(=O)Nc1ccc2c(c1)CC(=O)N([C@@H](C)CO)C[C@H](C)[C@@H](CN(C)CC1CC1)O2", "cytotoxicity call": "inactive"}, {"compound": "CN1C(=O)c2cc(NC(=O)C3CCC3)ccc2OC[C@@H]2O[C@H](CC(=O)NCCc3ccncc3)CC[C@@H]21", "cytotoxicity call": "inactive"}, {"compound": "C=CCC[C@@H](Cc1ccc(F)cc1)C(=O)OC[C@@H](Cc1c[nH]c2ccccc12)NC(=O)[C@@H](CC=C)CC(=O)N(CCO)Cc1ccccc1", "cytotoxicity call": "active"}, {"compound": "C[C@@H]1CN([C@@H](C)CO)C(=O)c2cccc(NC(=O)Nc3ccc(C(F)(F)F)cc3)c2O[C@H]1CN(C)Cc1ccc(C(=O)O)cc1", "cytotoxicity call": "inactive"}, {"compound": "O=C(C[C@@H]1C[C@H]2c3cc(NS(=O)(=O)c4ccc(F)cc4)ccc3O[C@H]2[C@@H](CO)O1)NCc1ccccc1F", "cytotoxicity call": "inactive"}, {"compound": "N[C@@H](Cc1cc(I)c(Oc2ccc(O)c(I)c2)c(I)c1)C(=O)O", "cytotoxicity call": "inactive"}, {"compound": "CCN1CCN(c2ccc(Nc3cc(N(C)C(=O)Nc4c(Cl)c(OC)cc(OC)c4Cl)ncn3)cc2)CC1", "cytotoxicity call": "active"}, {"compound": "COCCN1C(=O)C[C@@H]2[C@@H]1CCN2S(=O)(=O)c1cn(C)cn1", "cytotoxicity call": "inactive"}, {"compound": "C[C@@H]1CN([C@H](C)CO)C(=O)c2cc(NC(=O)Nc3ccc(C(F)(F)F)cc3)ccc2O[C@@H](C)CCCCO[C@H]1CN(C)Cc1ccc(C(=O)O)cc1", "cytotoxicity call": "inactive"}, {"compound": "COc1ccc([C@H]([C@H](Cc2ccccc2)OC(C)=O)N(CC#C[C@@H](O[Si](c2ccccc2)(c2ccccc2)C(C)(C)C)c2ccccc2)[C@@H](Cc2ccccc2)C(OC)OC)cc1", "cytotoxicity call": "inactive"}, {"compound": "O=C(O)[C@H](O)c1ccc(F)cc1", "cytotoxicity call": "inactive"}, {"compound": "CCCN(C)C[C@@H]1OCCCC[C@H](C)Oc2ccc(NC(=O)Cc3ccccc3)cc2C(=O)N([C@@H](C)CO)C[C@@H]1C", "cytotoxicity call": "inactive"}, {"compound": "Nc1ccn([C@@H]2O[C@H](CO)[C@H](O)[C@@H]2O)c(=O)n1", "cytotoxicity call": "inactive"}, {"compound": "C[C@@H]1CN([C@H](C)CO)C(=O)c2cccc(NS(=O)(=O)c3ccc(F)cc3)c2O[C@H]1CN(C)C(=O)Nc1cccc2ccccc12", "cytotoxicity call": "inactive"}, {"compound": "C[C@@H]1CCCCO[C@H](CN(C)C(=O)Cc2ccccc2)[C@H](C)CN([C@@H](C)CO)C(=O)c2cc(NC(=O)Nc3ccc(F)cc3)ccc2O1", "cytotoxicity call": "inactive"}, {"compound": "C[C@H]1CN([C@@H](C)CO)C(=O)c2cccc(NS(=O)(=O)c3ccc(F)cc3)c2O[C@H]1CN(C)S(=O)(=O)c1cccs1", "cytotoxicity call": "inactive"}, {"compound": "COc1ccc2c3c(n(c2c1)C)[C@@H](CO)N(Cc1cc(cc(c1)OC)OC)C[C@]13CCN(CC1)C(=O)Nc1cccc(c1)F", "cytotoxicity call": "inactive"}, {"compound": "C[C@@H]1CN([C@H](C)CO)C(=O)c2cc(NC(=O)C3CCCCC3)ccc2O[C@@H](C)CCCCO[C@@H]1CN(C)C(=O)Nc1ccccc1", "cytotoxicity call": "inactive"}, {"compound": "COc1ccc(S(=O)(=O)N(C)C[C@@H]2OCCCC[C@H](C)Oc3ccc(NC(=O)NC4CCCCC4)cc3C(=O)N([C@@H](C)CO)C[C@H]2C)cc1", "cytotoxicity call": "inactive"}, {"compound": "C[C@H]1CN([C@@H](C)CO)C(=O)c2cc(-c3cccnc3)cnc2O[C@@H]1CN(C)Cc1ccc(-c2ccccc2)cc1", "cytotoxicity call": "inactive"}, {"compound": "COc1ccc(CNC(=O)C[C@H]2CC[C@H]3[C@H](COc4ccc(NC(=O)C5CC5)cc4C(=O)N3C)O2)cc1", "cytotoxicity call": "inactive"}, {"compound": "CN1CCCC1CCOC(C)(c1ccccc1)c1ccc(Cl)cc1.O=C(O)C=CC(=O)O", "note": "(stereo not drawn)", "cytotoxicity call": "inactive"}, {"compound": "O=C(NO)c1ccc(C(=O)N/N=C/[C@H](O)[C@@H](O)[C@@H](O)[C@H](O)CO)cc1", "cytotoxicity call": "inactive"}, {"compound": "C[C@@H]1CCCCO[C@@H](CN(C)Cc2ccc(Cl)c(Cl)c2)[C@H](C)CN([C@@H](C)CO)C(=O)c2cc(NS(=O)(=O)c3cn(C)cn3)ccc2O1", "cytotoxicity call": "inactive"}]}]}
